Data as given in patent publication US20230414771A1, “PREPARATION AND USE OF IMMUNOSTIMULATORY CONJUGATED COMPLEXES FOR TARGETED DELIVERY AND ACTIVATION” (YAFEI SHANGHAI BIOLOGY MEDICINE SCIENCE & TECHNOLOGY CO., …, priority 2020, published 2023).
*1 amine or outer side, *2 acyl side, *3 side chain or, on linkers, in order; H or OH if unused. Where a SMILES comes first, the peptide text is derived from it. [ ]: non-standard residue; d: D form. The star is where a group is joined. ξ: configuration not given here. Doxorubicin(3'-N) = COc1cccc2c1C(=O)c1c(O)c3c(c(O)c1C2=O)C[C@@](O)(C(=O)CO)C[C@@H]3O[C@H]1C[C@H](N*)[C@H](O)[C@H](C)O1; X7 = CO[C@@]12[C@H](COC(N)=O)C3=C(C(=O)C(C)=C(N*)C3=O)N1C[C@@H]1N[C@@H]12; X6 = C[C@@]12C=CC(=O)C=C1CC[C@H]1C2C(=O)C[C@]2(C)C1CC[C@@]2(O)C(=O)CO*; X4 = [NH3+][Pt-2]1([NH3+])[O]C(=O)C2(CN(*)C2)C(=O)[O]1; Hexanoyl(6-maleimido) = O=C1C=CC(=O)N1CCCCCC(=O)*; Butanoyl(4-maleimido) = O=C1C=CC(=O)N1CCCC(=O)*; Propanoyl(3-maleimido) = O=C1C=CC(=O)N1CCC(=O)*; Maleimidoacetyl = O=C1C=CC(=O)N1CC(=O)*; PABC = O=C(OCc1ccc(N[*:1])cc1)[*:2]; PEG6 = NCCOCCOCCOCCOCCOCCOCCC(=O)O; X3 = O=C1C=CC(=O)N1CCOCCOCCC(=O)*; PEG4 = NCCOCCOCCOCCOCCC(=O)O; PEG3 = NCCOCCOCCOCCC(=O)O; ξE = NC(CCC(=O)O)C(=O)O; PEG2 = NCCOCCOCCC(=O)O

Test: Water solubility test (observation and HPLC)
Assay type: physicochemical
Details: thermodynamic from solid; lyophilized compound dissolved in water; checked by observation and HPLC (>95%)
Protocol: The compounds prepared in accordance with the examples of the disclosure and the reference compounds C1, C2, C3 and C4 were lyophilized (−70° C.).

SMILES | solubility [µg/mL]
COc1cccc2c1C(=O)c1c(O)c3c(c(O)c1C2=O)C[C@@](O)(C(=O)CO)C[C@@H]3O[C@H]1C[C@H](NC(=O)[C@H](CC(C)C)NC(=O)[C@H](CC(N)=O)NC(=O)[C@H](C)NC(=O)[C@H](C)NC(=O)[C@H](CC(=O)O)NC(=O)CCN2C(=O)C=CC2=O)[C@H](O)[C@H](C)O1 [QHL-114-DOX] ({Propanoyl(3-maleimido)}-DAANL-{Doxorubicin(3'-N)}) | > 15000
C[C@H](NC(=O)CCOCCOCCOCCOCCOCCOCCNC(=O)CCN1C(=O)C=CC1=O)C(=O)N[C@@H](C)C(=O)N[C@H](CC(N)=O)C(=O)Nc1ccc(COC(=O)OCC(=O)[C@]2(O)CCC3[C@H]4CCC5=CC(=O)C=C[C@@]5(C)C4C(=O)C[C@]32C)cc1 (stereo partly shown) [QHL-095-prednisone] | > 10000
CC[C@H](C)[C@H](NC(=O)CCCCCN1C(=O)C=CC1=O)C(=O)N[C@@H](C)C(=O)N[C@@H](C)C(=O)N[C@@H](CC(N)=O)C(=O)N[C@@H](CC(C)C)C(=O)N[C@H]1C[C@H](O[C@H]2C[C@](O)(C(=O)CO)Cc3c(O)c4c(c(O)c32)C(=O)c2c(OC)cccc2C4=O)O[C@@H](C)[C@H]1O [QHL-125-DOX] ({Hexanoyl(6-maleimido)}-IAANL-{Doxorubicin(3'-N)}) | > 2000
COc1cccc2c1C(=O)c1c(O)c3c(c(O)c1C2=O)C[C@@](O)(C(=O)CO)C[C@@H]3O[C@H]1C[C@H](NC(=O)[C@H](CC(C)C)NC(=O)[C@H](CC(N)=O)NC(=O)[C@H](C)NC(=O)[C@H](C)NC(=O)[C@H](C)NC(=O)CCCCCN2C(=O)C=CC2=O)[C@H](O)[C@H](C)O1 [QHL-122-DOX] ({Hexanoyl(6-maleimido)}-AAANL-{Doxorubicin(3'-N)}) | > 10000
COc1cccc2c1C(=O)c1c(O)c3c(c(O)c1C2=O)C[C@@](O)(C(=O)CO)C[C@@H]3O[C@H]1C[C@H](NC(=O)[C@H](CC(C)C)NC(=O)[C@H](CC(N)=O)NC(=O)[C@H](C)NC(=O)[C@H](C)NC(=O)CCOCCOCCOCCNC(=O)CCN2C(=O)C=CC2=O)[C@H](O)[C@H](C)O1 [QHL-090-DOX] | > 10000
C[C@H](NC(=O)C(CCC(=O)O)NC(=O)CCCCCN1C(=O)C=CC1=O)C(=O)N[C@@H](C)C(=O)N[C@@H](CC(N)=O)C(=O)Nc1ccc(COC(=O)OCC(=O)[C@]2(O)CCC3[C@H]4CCC5=CC(=O)C=C[C@@]5(C)C4C(=O)C[C@]32C)cc1 (stereo partly shown) [QHL-116-prednisone] ({Hexanoyl(6-maleimido)}-[ξE]AAN[PABC]-X6) | > 10000
CC(C)C[C@H](NC(=O)[C@H](CC(N)=O)NC(=O)[C@H](C)NC(=O)[C@H](C)NC(=O)CCOCCOCCNC(=O)CCCN1C(=O)C=CC1=O)C(=O)N1CC2(C1)C(=O)[O][Pt-2]([NH3+])([NH3+])[O]C2=O [QHL-099-N-CBP] ({Butanoyl(4-maleimido)-PEG2}-AANL-X4) | > 10000
C[C@H](NC(=O)CCOCCOCCOCCOCCNC(=O)CCN1C(=O)C=CC1=O)C(=O)N[C@@H](C)C(=O)NC(CC(N)=O)C(=O)Nc1ccc(COC(=O)OCC(=O)[C@]2(O)CCC3[C@H]4CCC5=CC(=O)C=C[C@@]5(C)C4C(=O)C[C@]32C)cc1 (stereo partly shown) [QHL-092-prednisone] | > 10000
COc1cccc2c1C(=O)c1c(O)c3c(c(O)c1C2=O)C[C@@](O)(C(=O)CO)C[C@@H]3O[C@H]1C[C@H](NC(=O)[C@H](CC(C)C)NC(=O)[C@H](CC(N)=O)NC(=O)[C@H](C)NC(=O)[C@H](C)NC(=O)[C@H](CS)NC(=O)CCCCCN2C(=O)C=CC2=O)[C@H](O)[C@H](C)O1 [QHL-131-DOX] ({Hexanoyl(6-maleimido)}-CAANL-{Doxorubicin(3'-N)}) | > 10000
CC(C)CC(NC(=O)C(CC(N)=O)NC(=O)C(C)NC(=O)C(C)NC(=O)CCCN1C(=O)C=CC1=O)C(=O)N1CC2(C1)C(=O)[O][Pt-2]([NH3+])([NH3+])[O]C2=O (stereo not shown) [QHL-141-N-CBP] ({Butanoyl(4-maleimido)}-AANL-X4; configuration not given here) | > 20000
CC(C)CC(NC(=O)C(CC(N)=O)NC(=O)C(C)NC(=O)C(C)NC(=O)CCOCCOCCOCCOCCNC(=O)CCN1C(=O)C=CC1=O)C(=O)N1CC2(C1)C(=O)[O][Pt-2]([NH3+])([NH3+])[O]C2=O (stereo not shown) [QHL-093-N-CBP] ({Propanoyl(3-maleimido)-PEG4}-AANL-X4; configuration not given here) | > 10000
CC(C)CC(NC(=O)C(CC(N)=O)NC(=O)C(C)NC(=O)C(C)NC(=O)CN1C(=O)C=CC1=O)C(=O)N1CC2(C1)C(=O)[O][Pt-2]([NH3+])([NH3+])[O]C2=O (stereo not shown) [QHL-144-N-CBP] (Maleimidoacetyl-AANL-X4; configuration not given here) | > 10000
COc1cccc2c1C(=O)c1c(O)c3c(c(O)c1C2=O)C[C@@](O)(C(=O)CO)C[C@@H]3O[C@H]1C[C@H](NC(=O)[C@H](CC(C)C)NC(=O)[C@H](CC(N)=O)NC(=O)[C@H](C)NC(=O)[C@H](C)NC(=O)CCOCCOCCOCCNC(=O)CCCN2C(=O)C=CC2=O)[C@H](O)[C@H](C)O1 [QHL-102-DOX] ({Butanoyl(4-maleimido)-PEG3}-AANL-{Doxorubicin(3'-N)}) | > 10000
COc1cccc2c1C(=O)c1c(O)c3c(c(O)c1C2=O)C[C@@](O)(C(=O)CO)C[C@@H]3O[C@H]1C[C@H](NC(=O)[C@H](CC(C)C)NC(=O)[C@H](CC(N)=O)NC(=O)[C@H](C)NC(=O)[C@H](C)NC(=O)CCOCCOCCOCCOCCNC(=O)CCN2C(=O)C=CC2=O)[C@H](O)[C@H](C)O1 [QHL-093-DOX] ({Propanoyl(3-maleimido)-PEG4}-AANL-{Doxorubicin(3'-N)}) | > 20000
COc1cccc2c1C(=O)c1c(O)c3c(c(O)c1C2=O)C[C@@](O)(C(=O)CO)C[C@@H]3O[C@H]1C[C@H](N)[C@H](O)[C@H](C)O1 [DOX, doxorubicin, reference compound] | < 1000
COc1cccc2c1C(=O)c1c(O)c3c(c(O)c1C2=O)C[C@@](O)(C(=O)CO)C[C@@H]3O[C@H]1C[C@H](NC(=O)[C@H](CC(C)C)NC(=O)[C@H](CC(N)=O)NC(=O)[C@H](C)NC(=O)[C@H](C)NC(=O)[C@H](CCC(=O)O)NC(=O)CCOCCOCCOCCOCCNC(=O)CCN2C(=O)C=CC2=O)[C@H](O)[C@H](C)O1 [QHL-051-DOX] ({Propanoyl(3-maleimido)-PEG4}-EAANL-{Doxorubicin(3'-N)}) | > 25000
COc1cccc2c1C(=O)c1c(O)c3c(c(O)c1C2=O)C[C@@](O)(C(=O)CO)C[C@@H]3O[C@H]1C[C@H](NC(=O)[C@H](CC(C)C)NC(=O)[C@H](CC(N)=O)NC(=O)[C@H](C)NC(=O)[C@H](C)NC(=O)[C@H](CCC(=O)O)NC(=O)CCN2C(=O)C=CC2=O)[C@H](O)[C@H](C)O1 [QHL-111-DOX] ({Propanoyl(3-maleimido)}-EAANL-{Doxorubicin(3'-N)}) | > 10000
COc1cccc2c1C(=O)c1c(O)c3c(c(O)c1C2=O)C[C@@](O)(C(=O)CO)C[C@@H]3O[C@H]1C[C@H](NC(=O)[C@H](CC(C)C)NC(=O)[C@H](CC(N)=O)NC(=O)[C@H](C)NC(=O)[C@H](C)NC(=O)[C@H](CC(=O)O)NC(=O)CCOCCOCCN2C(=O)C=CC2=O)[C@H](O)[C@H](C)O1 [QHL-033-DOX] (X3-DAANL-{Doxorubicin(3'-N)}) | > 20000
COc1cccc2c1C(=O)c1c(O)c3c(c(O)c1C2=O)C[C@@](O)(C(=O)CO)C[C@@H]3O[C@H]1C[C@H](NC(=O)[C@H](CC(C)C)NC(=O)[C@H](CC(N)=O)NC(=O)[C@H](C)NC(=O)[C@H](C)NC(=O)[C@H](CC(=O)O)NC(=O)CCOCCOCCNC(=O)CCN2C(=O)C=CC2=O)[C@H](O)[C@H](C)O1 [QHL-042-DOX] ({Propanoyl(3-maleimido)-PEG2}-DAANL-{Doxorubicin(3'-N)}) | > 20000
COc1cccc2c1C(=O)c1c(O)c3c(c(O)c1C2=O)C[C@@](O)(C(=O)CO)C[C@@H]3O[C@H]1C[C@H](NC(=O)[C@H](CC(C)C)NC(=O)[C@H](CC(N)=O)NC(=O)[C@H](C)NC(=O)[C@H](C)NC(=O)[C@H](CCC(=O)O)NC(=O)CCOCCOCCNC(=O)CCN2C(=O)C=CC2=O)[C@H](O)[C@H](C)O1 [QHL-039-DOX] ({Propanoyl(3-maleimido)-PEG2}-EAANL-{Doxorubicin(3'-N)}) | > 20000
COc1cccc2c1C(=O)c1c(O)c3c(c(O)c1C2=O)C[C@@](O)(C(=O)CO)C[C@@H]3O[C@H]1C[C@H](NC(=O)[C@H](CC(C)C)NC(=O)[C@H](CC(N)=O)NC(=O)[C@H](C)NC(=O)[C@H](C)NC(=O)[C@H](CC(=O)O)NC(=O)CCOCCOCCOCCOCCOCCOCCNC(=O)CCCN2C(=O)C=CC2=O)[C@H](O)[C@H](C)O1 [QHL-084-DOX] ({Butanoyl(4-maleimido)-PEG6}-DAANL-{Doxorubicin(3'-N)}) | > 30000
C[C@@H](NC(=O)CCOCCOCCOCCNC(=O)CCN1C(=O)C=CC1=O)C(=O)N[C@H](C)C(=O)N[C@H](CC(N)=O)C(=O)Nc1ccc(COC(=O)N(C)CCNC(=O)c2cc(Oc3ccc(NC(=O)Nc4ccc(Cl)c(C(F)(F)F)c4)cc3)ccn2)cc1 [QHL-089-compound a] | > 20000
CO[C@@]12[C@H](COC(N)=O)C3=C(C(=O)C(C)=C(NC(=O)[C@H](CC(C)C)NC(=O)[C@H](CC(N)=O)NC(=O)[C@H](C)NC(=O)[C@H](C)NC(=O)CCOCCOCCOCCNC(=O)CCN4C(=O)C=CC4=O)C3=O)N1C[C@@H]1N[C@@H]12 [QHL-090-mitomycin] ({Propanoyl(3-maleimido)-PEG3}-AANL-X7) | > 10000
COc1cccc2c1C(=O)c1c(O)c3c(c(O)c1C2=O)C[C@@](O)(C(=O)CO)C[C@@H]3O[C@H]1C[C@H](NC(=O)[C@H](CC(C)C)NC(=O)[C@H](CC(N)=O)NC(=O)[C@H](C)NC(=O)[C@H](C)NC(=O)[C@H](CCC(=O)O)NC(=O)CCOCCOCCOCCNC(=O)CCCN2C(=O)C=CC2=O)[C@H](O)[C@H](C)O1 [QHL-069-DOX] ({Butanoyl(4-maleimido)-PEG3}-EAANL-{Doxorubicin(3'-N)}) | > 25000
COc1cccc2c1C(=O)c1c(O)c3c(c(O)c1C2=O)C[C@@](O)(C(=O)CO)C[C@@H]3O[C@H]1C[C@H](NC(=O)[C@H](CC(C)C)NC(=O)[C@H](CC(N)=O)NC(=O)[C@H](C)NC(=O)[C@H](C)NC(=O)CNC(=O)CCCCCN2C(=O)C=CC2=O)[C@H](O)[C@H](C)O1 [QHL-121-DOX] ({Hexanoyl(6-maleimido)}-GAANL-{Doxorubicin(3'-N)}) | > 10000
